PubChem BioAssay AID1460 (National Center for Advancing Translational Sciences (NCATS), 2008)
Values joined by “and” are separate entries in the source; they are usually repeats but may differ in a detail not shown here. Equal values may be shown once. Out of some 270,000 compounds screened, about 5,800 (2.1%) were called active. The shares of active, inactive and inconclusive entries below differ from those in the screen. Calls come from the whole dose curve; as a rule, active = well fitted inhibition curve with a large enough effect; inconclusive = small, poorly fitted or top-dose-only effect; inactive = flat fitted curve, though single readings scatter. A potency beside an inconclusive call is a rough fit, not a confirmed value. Where a structure was tested more than once in an assay, its records may differ in their call.

Target: Microtubule-associated protein tau (Homo sapiens) (UniProt P10636)
Test: qHTS for Inhibitors of Tau Fibril Formation, Thioflavin T Binding; note: nearly all actives have a fitted effect of over 55% in size
Conditions: recombinant tau K18 P301L, heparin-induced fibrillization, ThT fluorescence; series mostly up to 57.4 µM; activity, negative = inhibition: at the top concentration
How it was run: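 ThT emission at 510 nm, taken 1 hr after adding 30 uM dye, quantifies aggregates formed when 20 uM heparin acts on human tau K18 P301L for 6 hr at 37 C.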
% is set by controls: 0 for no effect and ±100 for the full control effect; potency is the fitted concentration of half-maximal effect; tags give direction and shape of the fitted curve.

UniProt P10636, sequence (P10636 whole entry, looked up): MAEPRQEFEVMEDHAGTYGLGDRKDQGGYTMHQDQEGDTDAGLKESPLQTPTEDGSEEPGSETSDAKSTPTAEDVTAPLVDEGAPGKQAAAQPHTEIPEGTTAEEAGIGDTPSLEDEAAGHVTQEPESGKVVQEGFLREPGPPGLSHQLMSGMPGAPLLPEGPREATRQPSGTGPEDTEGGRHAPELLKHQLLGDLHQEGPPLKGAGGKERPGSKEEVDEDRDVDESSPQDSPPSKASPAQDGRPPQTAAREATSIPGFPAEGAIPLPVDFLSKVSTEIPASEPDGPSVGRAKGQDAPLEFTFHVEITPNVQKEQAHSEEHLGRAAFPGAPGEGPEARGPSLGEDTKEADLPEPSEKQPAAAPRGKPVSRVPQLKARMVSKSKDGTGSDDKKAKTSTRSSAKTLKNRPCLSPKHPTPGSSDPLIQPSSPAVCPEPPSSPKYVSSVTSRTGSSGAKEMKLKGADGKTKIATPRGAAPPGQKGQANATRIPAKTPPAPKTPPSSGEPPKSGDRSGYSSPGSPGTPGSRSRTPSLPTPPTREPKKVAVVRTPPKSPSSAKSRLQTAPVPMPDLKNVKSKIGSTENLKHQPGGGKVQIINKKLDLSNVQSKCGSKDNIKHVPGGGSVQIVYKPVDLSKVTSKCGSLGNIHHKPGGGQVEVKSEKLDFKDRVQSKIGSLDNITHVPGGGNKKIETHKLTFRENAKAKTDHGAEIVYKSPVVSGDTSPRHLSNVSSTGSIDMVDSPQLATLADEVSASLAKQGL

Row | SMILES | Potency | activity, negative = inhibition
1 | CC(=O)OCC1OC(C#Cc2ccc(F)cc2F)C=CC1OC(C)=O (configuration not stated) | inconclusive: 3.98 µM [inhibitor, partial curve] | 
2 | COc1cc(OC)c(NC(=O)C2=C(C)C(=O)OC23CCCCC3)cc1Cl |  | inactive: -2.75%
3 | O=c1c(-c2ccc(Cl)cc2)[n+]([O-])c2ccccc2n1OCc1nc2ccccc2[nH]1 | inconclusive: 14.1 µM [inhibitor, partial curve] | 
4 | NC(=O)SCC(=O)Nc1cccc(Cl)c1 | inconclusive: 25.1 µM [inhibitor, single point] | 
5 | O=c1[nH]c(=O)c2nc3c4ccccc4c4ccccc4c3nc2[nH]1 | inconclusive: 7.08 µM [inhibitor, partial curve] | 
6 | Cc1ccc(N/C=C(/C#N)c2ccsc2)cc1C | inconclusive: 3.98 µM [inhibitor, full curve] | 
7 | O=c1cc(-c2ccccc2)n2c(SCc3ccc([N+](=O)[O-])cc3)nnc2[nH]1 | inconclusive: 7.94 µM [inhibitor, full curve] | 
8 | N#Cc1cc2c(nc1SCC(=O)Nc1sc3c(c1C#N)CCC3)CCCC2 | inconclusive: 2.24 µM [inhibitor, full curve] | 
9 | NC(=O)/C(=C/c1ccco1)NC(=O)/C=C/c1ccccc1 | inconclusive: 39.8 µM [inhibitor, single point] | 
10 | CN(C)N=Nc1nc2c([nH]1)c(=O)n(C)c(=O)n2C | inconclusive: 35.5 µM [inhibitor, partial curve] | 
11 | Cc1ncc(COC(=O)C(C)C)c2cc(C(=O)Nc3ccccc3C(F)(F)F)c(=O)oc12 |  | inactive: -6.48%
12 | O=C(Nc1cccc(Cl)c1)c1ccc2nc(Cc3ccccc3)oc2c1 |  | inactive: 3.55%
13 | O=C(CN1CCOCC1)N/N=C/c1ccc(-c2cccc(Cl)c2Cl)o1 | inconclusive: 0.0251 µM [inhibitor, full curve, poor fit] | 
14 | O=C(CCc1nc2cccnc2n1Cc1ccccc1)NCc1cccc(Cl)c1 |  | inactive: -17.3%
15 | COc1cccc(Cn2cnc3c(N)c(C)c(C)cc32)c1 |  | inactive: -10.9%
16 | CC(=O)N1CC[n+]2c(-c3ccc(Cl)cc3)csc21 | active: 28.2 µM | 
17 | O=C(NCc1ccco1)c1ccc2c(=O)n(CC3CCCO3)c(=S)[nH]c2c1 (configuration not stated) |  | inactive: -10.9%
18 | Cc1ccc2c(c1)N(C(=O)N1CCC(C(=O)NCCC3=CCCCC3)CC1)CC(C)O2 (configuration not stated) | inconclusive: 15.8 µM [inhibitor, partial curve] | 
19 | CCCCCCC(=O)N1C/C=C\C(c2ccc(OC)cc2)N(Cc2ccc(F)cc2)C(=O)[C@H]1Cc1ccccc1 (some centres not stated) | inconclusive: 39.8 µM [inhibitor, single point] | 
20 | O=C(Nc1nccs1)c1cc2c(s1)CCCCC2 |  | inactive: 6.9%
21 | COc1ccc(Br)cc1C1NC(=O)c2c(sc3c2CCN(C)C3)N1 (configuration not stated) |  | inactive: -14.2%
22 | CCCCn1c(=O)[nH]c(=O)c2c1nc(-c1ccc(-c3ccccc3Br)o1)n2CC | inconclusive: 35.5 µM [inhibitor, partial curve] | 
23 | Cc1ccc(NS(=O)(=O)c2ccc(Br)s2)nc1 | active: 28.2 µM | 
24 | COc1ccccc1C(=O)Nc1c(C)cc(Br)cc1C | inconclusive: 12.6 µM [inhibitor, single point] | 

Row | SMILES | Potency | activity, negative = inhibition
25 | Cc1nn2c(C(F)(F)F)cc(-c3ccc(OC(C)C)cc3)nc2c1C#N |  | inactive: -8.63%
26 | Fc1ccc(Nc2nc(Oc3ccc4c(c3)OCO4)nc(N3CCOCC3)n2)c(F)c1 |  | inactive: -8.2%
27 | COc1ccc(/C(C)=N/Nc2ccc(C(=O)O)cc2)c(OC)c1 | inconclusive: 17.8 µM [inhibitor, single point] | 
28 | CCn1c(SCC(=O)c2ccccc2)nc2sc3c(c2c1=O)CCN(C)C3 | inconclusive: 22.4 µM [inhibitor, partial curve, poor fit] | 
29 | COC(=O)CCCC1=CC2=CC(=O)C(C)(OC(=O)CCc3ccccc3)C(=O)C2=CO1 (configuration not stated) | inactive and active: 25.1 µM | 
30 | O=C(COc1cccc2cccnc12)N/N=C/c1ccccc1O | inconclusive: 2.82 µM [inhibitor, partial curve] | 
31 | N#Cc1c(N)oc(-c2cccs2)c1-c1cccs1 | inconclusive: 31.6 µM [inhibitor, single point] | 
32 | CC1=NN(c2ccccc2)C(=O)C1N=Nc1ccccc1 (configuration not stated) | inconclusive: 3.55 µM [inhibitor, full curve] | 
33 | CCN1CCN(CCCNC(=O)c2cc3c(s2)-c2c(C)cccc2OC3)CC1 | inconclusive: 15.8 µM [inhibitor, partial curve] | 
34 | Nc1ncnc2c1ncn2C1CCCC1 |  | inactive: -12.4%
35 | O=C(c1ccco1)N1CCN(c2nc3ccc(Cl)cc3s2)CC1 | inconclusive: 2 µM [inhibitor, partial curve] | 
36 | O=C1NC(NS(=O)(=O)c2ccc(Cl)cc2)(C(F)(F)F)C(=O)N1CCc1ccccc1 (configuration not stated) |  | inactive: -2.34%
37 | CCn1ccc2cc(S(=O)(=O)N3CCC(C(=O)NCCOC)CC3)ccc21 |  | inactive: 5.12%
38 | COc1ccc(-c2cc(CNS(=O)(=O)c3ccc(F)cc3)on2)cc1 | inconclusive: 5.62 µM [inhibitor, partial curve] | 
39 | CCc1nc2ccc(C(=O)NCCc3ccc(OC)c(OC)c3)cc2nc1CC | inconclusive: 5.62 µM [inhibitor, partial curve, poor fit] | 
40 | Cc1cccc(N2CCN(c3ccc(N4C(=O)CCCC4=O)cc3[N+](=O)[O-])CC2)c1C | inconclusive: 6.31 µM [inhibitor, full curve] | 
41 | Cc1ccc(C)c(N2CCN(C(=O)c3cccn3-c3nnc(N4CCCCC4)s3)CC2)c1 | inconclusive: 25.1 µM [inhibitor, single point] | 
42 | O=C(CSc1nnnn1-c1ccccc1)N1CCCc2ccccc21 |  | inactive: -12.5%
43 | COc1ccc(NC(=S)NNC(=O)CNc2ccc(Cl)cc2)cc1 |  | inactive: -17.3%
44 | C(=N\NC1=Nc2cccc3cccc1c23)/c1cccnc1 | active: 2.82 µM | 
45 | COc1ccc(OC)c(CCNC(=O)c2ccc3[nH]c(C)c(C)c3c2)c1 | inconclusive: 10 µM [inhibitor, partial curve] | 
46 | COCCn1c(C)cc(O)c(C(c2ccccc2OC)N2CCCCC2)c1=O (configuration not stated) | inconclusive: 14.1 µM [inhibitor, partial curve] | 
47 | Cc1cccc(NC(=S)N2CCC(N(C)CC3CCCO3)CC2)c1 (configuration not stated) |  | inactive: -5.43%
48 | Cc1ccc2[nH]c3c(N4CCc5ccccc5C4)ncnc3c2c1 | inconclusive: 12.6 µM [inhibitor, partial curve] | 

Row | SMILES | Potency | activity, negative = inhibition
49 | N#CCCCS(=O)(=O)c1nnnn1-c1ccc(F)cc1Br | inconclusive: 22.4 µM [inhibitor, single point] | 
50 | Nc1c2c(nc3ccc(Br)cc13)N(C1CCCCC1)CC2 | inconclusive: 12.6 µM [inhibitor, partial curve, poor fit] | 
51 | CC(Sc1nnc(Nc2ccccc2)s1)C(=O)Nc1nc(-c2ccccc2)cs1 (configuration not stated) |  | inactive: -3%
52 | COc1ccc2c(c1)c(C(=O)N/N=C/c1ccc(Cl)cc1)c(C)n2C | inconclusive: 2.24 µM [inhibitor, partial curve] | 
53 | CCOC(=O)c1ccc(NC(=O)Cn2nnc(-c3ccccc3)n2)cc1 | inconclusive: 20 µM [inhibitor, partial curve] | 
54 | Cn1c2c(c(=O)n(C)c1=O)C1(C(=O)Nc3ccccc31)C(C#N)=C(N)O2 (configuration not stated) | active: 14.1 µM | 
55 | CCC/C=C(\CCC)C(NS(=O)(=O)CC12CCC(CC1=O)C2(C)C)c1ccc(C(=O)OC)cc1 (configuration not stated) | inconclusive: 17.8 µM [inhibitor, partial curve] | 
56 | O=C(c1ccc2c(=O)n(Cc3ccco3)c(=S)[nH]c2c1)N1CCN(c2ccccc2)CC1 |  | inactive: 3.11%
57 | COc1ccc(C(=O)Nc2ccc(NC(=O)c3cccs3)cc2)cc1Cl | inconclusive: 0.708 µM [inhibitor, full curve] | 
58 | O=C(Nc1nc2cc3c(cc2s1)OCO3)C1=COCCO1 | inconclusive: 20 µM [inhibitor, partial curve] | 
59 | Cc1ccc2c(CC(=O)Nc3c(C(=O)Nc4cccc(Cl)c4)oc4ccccc34)coc2c1C |  | inactive: 18.2%
60 | O=C1NC(c2cccc([N+](=O)[O-])c2)=CCN1c1ccccc1O | inconclusive: 15.8 µM [inhibitor, partial curve, poor fit] | 
61 | COc1ccc(N2C(=O)CC(Sc3nc(C)cc(C)c3C#N)C2=O)cc1 (configuration not stated) |  | inactive: -10.6%
62 | Cc1ccc(C(=O)CCNc2ccccc2)o1 |  | inactive: -11.8%
63 | COc1ccc(Nc2ccc(Nc3ccc(OC)cc3)nn2)cc1 | inconclusive: 2.82 µM [inhibitor, full curve] | 
64 | O=C1S/C(=C\c2ccc(O)c([N+](=O)[O-])c2)C(=O)N1c1ccccc1Cl | active: 6.31 µM | 
65 | Cc1ccc2nc(SCc3nc(-c4ccccc4C)no3)[nH]c2c1 | inconclusive: 3.98 µM [inhibitor, full curve] | 
66 | COc1ccccc1N(C)S(=O)(=O)c1ccc(C(=O)NCC(C)C)cc1 |  | inactive: -6.13%
67 | COC(=O)c1sc2cc(=O)n(-c3cccc(C(F)(F)F)c3)nc2c1O | inconclusive: 20 µM [inhibitor, single point] | 
68 | O=[N+]([O-])c1cccc(/C=N/N2CCN(Cc3ccc(Cl)cc3)CC2)c1 | inconclusive: 31.6 µM [inhibitor, single point] | 
69 | COc1ccc(-c2noc(-c3ccc4c(c3)OCO4)n2)cc1 | inconclusive: 2 µM [inhibitor, full curve] | 
70 | O=C(N/N=C/c1ccccc1OC(F)F)C1=COCCO1 | inconclusive: 22.4 µM [inhibitor, single point] | 
71 | Cc1ccc(S(=O)(=O)N(CCC#N)C2CCCCC2)c2nsnc12 | inconclusive: 35.5 µM [inhibitor, single point] | 
72 | O=S(=O)(NCCOCC(F)(F)C(F)F)c1ccc2oc3ccccc3c2c1 | inconclusive: 3.98 µM [inhibitor, partial curve, poor fit] | 
